Source: the supplement of paper PMC8728848
The other results are listed elsewhere or left out.

Key:
Experiment in all cases: glycan array binding signal (z-score within array); higher = stronger binding
Settings in all cases: glycan notation: IUPAC condensed, linker removed
[1] = target: Gal(b1-3)GlcNAc(b1-3)GalNAc
In short: (§1)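 Columns mapping to the same glycan were averaged after glycan names were converted to IUPAC-condensed notation. The data come from 3228 arrays in the Consortium for Functional Glycomics database, limited to those with an available protein sequence. Binding is reported as a within-array Z-score averaged across arrays of one protein sequence and across linkers.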

[2] = target: Gal(b1-3)GlcNAc(b1-6)Gal(b1-4)GlcNAc
In short: as §1

[3] = target: Gal(b1-3)GlcNAc(b1-6)GalNAc
In short: as §1

[4] = target: Gal(b1-3)GlcNAc(b1-6)[Gal(b1-3)]GalNAc
In short: as §1

Gal(b1-3)GlcNAc6S = target: Gal(b1-3)GlcNAc6S
In short: as §1

[5] = target: Gal(b1-3)[Fuc(a1-4)]GlcNAc
In short: as §1

[6] = target: Gal(b1-3)[Fuc(a1-4)]GlcNAc(b1-2)Man
In short: as §1

[7] = target: Gal(b1-3)[Fuc(a1-4)]GlcNAc(b1-2)Man(a1-3)[Gal(b1-3)[Fuc(a1-4)]GlcNAc(b1-2)Man(a1-6)]Man(b1-4)GlcNAc(b1-4)[Fuc(a1-6)]GlcNAc
In short: as §1

[8] = target: Gal(b1-3)[Fuc(a1-4)]GlcNAc(b1-3)Gal(b1-3)[Fuc(a1-4)]GlcNAc
In short: as §1

[9] = target: Gal(b1-3)[Fuc(a1-4)]GlcNAc(b1-3)Gal(b1-4)GlcNAc
In short: as §1

[10] = target: Gal(b1-3)[Fuc(a1-4)]GlcNAc(b1-3)Gal(b1-4)[Fuc(a1-3)]GlcNAc
In short: as §1

[11] = target: Gal(b1-3)[Fuc(a1-4)]GlcNAc(b1-6)GalNAc
In short: as §1

[12] = target: Gal(b1-3)[GlcNAc(b1-6)]GalNAc
In short: as §1

[13] = target: Gal(b1-3)[Neu5Ac(a2-6)]GalNAc
In short: as §1

[14] = target: Gal(b1-3)[Neu5Ac(a2-6)]GlcNAc(b1-4)Gal(b1-4)Glc
In short: as §1

[15] = target: Gal(b1-3)[Neu5Ac(a2-6)]GlcNAc(b1-6)Gal(b1-4)Glc
In short: as §1

[16] = target: Gal(b1-3)[Neu5Ac(b2-6)]GalNAc
In short: as §1

Gal(b1-4)Gal = target: Gal(b1-4)Gal
In short: as §1

[17] = target: Gal(b1-4)GalNAc(a1-3)[Fuc(a1-2)]Gal(b1-4)GlcNAc
In short: as §1

[18] = target: Gal(b1-4)GalNAc(b1-3)[Fuc(a1-2)]Gal(b1-4)GlcNAc
In short: as §1

Gal(b1-4)Glc = target: Gal(b1-4)Glc
In short: as §1

Gal(b1-4)Glc6S = target: Gal(b1-4)Glc6S
In short: as §1

Gal(b1-4)GlcNAc = target: Gal(b1-4)GlcNAc
In short: as §1

[19] = target: Gal(b1-4)GlcNAc(a1-6)Gal(b1-4)GlcNAc
In short: as §1

Gal(b1-4)GlcNAc(b1-2)Man = target: Gal(b1-4)GlcNAc(b1-2)Man
In short: as §1

[20] = target: Gal(b1-4)GlcNAc(b1-2)Man(a1-3)Man(b1-4)GlcNAc(b1-4)GlcNAc
In short: as §1

[21] = target: Gal(b1-4)GlcNAc(b1-2)Man(a1-3)[Gal(b1-4)GlcNAc(b1-2)Man(a1-6)]Man(b1-4)GlcNAc(b1-4)GlcNAc
In short: as §1

[22] = target: Gal(b1-4)GlcNAc(b1-2)Man(a1-3)[Gal(b1-4)GlcNAc(b1-2)Man(a1-6)]Man(b1-4)GlcNAc(b1-4)[Fuc(a1-6)]GlcNAc
In short: as §1

[23] = target: Gal(b1-4)GlcNAc(b1-2)Man(a1-3)[Gal(b1-4)GlcNAc(b1-2)Man(a1-6)][Gal(b1-4)GlcNAc(b1-4)]Man(b1-4)GlcNAc(b1-4)[Fuc(a1-6)]GlcNAc
In short: as §1

[24] = target: Gal(b1-4)GlcNAc(b1-2)Man(a1-3)[Gal(b1-4)GlcNAc(b1-2)Man(a1-6)][GlcNAc(b1-4)]Man(b1-4)GlcNAc(b1-4)[Fuc(a1-6)]GlcNAc
In short: as §1

[25] = target: Gal(b1-4)GlcNAc(b1-2)Man(a1-3)[GlcNAc(b1-2)Man(a1-6)]Man(b1-4)GlcNAc(b1-4)GlcNAc
In short: as §1

[26] = target: Gal(b1-4)GlcNAc(b1-2)Man(a1-3)[GlcNAc(b1-4)][Gal(b1-4)GlcNAc(b1-2)Man(a1-6)]Man(b1-4)GlcNAc(b1-4)GlcNAc
In short: as §1

[27] = target: Gal(b1-4)GlcNAc(b1-2)Man(a1-3)[Man(a1-6)]Man(b1-4)GlcNAc(b1-4)GlcNAc
In short: as §1

[28] = target: Gal(b1-4)GlcNAc(b1-2)Man(a1-6)Man(b1-4)GlcNAc(b1-4)GlcNAc
In short: as §1

[29] = target: Gal(b1-4)GlcNAc(b1-2)Man(a1-6)[GlcNAc(b1-2)Man(a1-3)]Man(b1-4)GlcNAc(b1-4)GlcNAc
In short: as §1

[30] = target: Gal(b1-4)GlcNAc(b1-2)Man(a1-6)[Man(a1-3)]Man(b1-4)GlcNAc(b1-4)GlcNAc
In short: as §1

[31] = target: Gal(b1-4)GlcNAc(b1-2)[Gal(b1-4)GlcNAc(b1-4)]Man(a1-3)[Gal(b1-4)GlcNAc(b1-2)Man(a1-6)]Man(b1-4)GlcNAc(b1-4)GlcNAc
In short: as §1

[32] = target: Gal(b1-4)GlcNAc(b1-2)[Gal(b1-4)GlcNAc(b1-4)]Man(a1-3)[Gal(b1-4)GlcNAc(b1-2)[Gal(b1-4)GlcNAc(b1-6)]Man(a1-6)]Man(b1-4)GlcNAc(b1-4)GlcNAc
In short: as §1

[33] = target: Gal(b1-4)GlcNAc(b1-2)[Gal(b1-4)GlcNAc(b1-4)]Man(a1-3)[GlcNAc(b1-4)][Gal(b1-4)GlcNAc(b1-2)Man(a1-6)]Man(b1-4)GlcNAc(b1-4)GlcNAc
In short: as §1

[34] = target: Gal(b1-4)GlcNAc(b1-2)[Gal(b1-4)GlcNAc(b1-4)]Man(a1-3)[GlcNAc(b1-4)][Gal(b1-4)GlcNAc(b1-2)[Gal(b1-4)GlcNAc(b1-6)]Man(a1-6)]Man(b1-4)GlcNAc(b1-4)GlcNAc
In short: as §1

[35] = target: Gal(b1-4)GlcNAc(b1-2)[Gal(b1-4)GlcNAc(b1-6)]Man(a1-6)[Gal(b1-4)GlcNAc(b1-2)Man(a1-3)]Man(b1-4)GlcNAc(b1-4)GlcNAc
In short: as §1

[36] = target: Gal(b1-4)GlcNAc(b1-2)[Gal(b1-4)GlcNAc(b1-6)]Man(a1-6)[Gal(b1-4)GlcNAc(b1-2)Man(a1-3)]Man(b1-4)GlcNAc(b1-4)[Fuc(a1-6)]GlcNAc
In short: as §1

[37] = target: Gal(b1-4)GlcNAc(b1-2)[Gal(b1-4)GlcNAc(b1-6)]Man(a1-6)[GlcNAc(b1-4)][Gal(b1-4)GlcNAc(b1-2)Man(a1-3)]Man(b1-4)GlcNAc(b1-4)GlcNAc
In short: as §1

[38] = target: Gal(b1-4)GlcNAc(b1-2)[Gal(b1-4)GlcNAc(b1-6)]Man(a1-6)[GlcNAc(b1-4)][Gal(b1-4)GlcNAc(b1-2)[Gal(b1-4)GlcNAc(b1-4)]Man(a1-3)]Man(b1-4)GlcNAc(b1-4)[Fuc(a1-6)]GlcNAc
In short: as §1

[39] = target: Gal(b1-4)GlcNAc(b1-3)Gal(b1-3)GalNAc
In short: as §1

B1: HHA (Hippeastrum hybrid) (protein)
chain: MQQDCNLVLYDVDKPIWASNTGGLARDCHLNMQSDGNLVVYAPRNQVIWASNTQGENGNYVCILQKDRNVVIYGTARWATGTNIHGAGIVGVPGSAPQNTTAEMIKLVRKYLITK
glycan array binding signal (z-score) [1]: 0.808 | glycan array binding signal (z-score) [2]: -0.211 | glycan array binding signal (z-score) [3]: -0.211 | glycan array binding signal (z-score) [4]: -0.071 | glycan array binding signal (z-score) (Gal(b1-3)GlcNAc6S): -0.216 | glycan array binding signal (z-score) [5]: -0.212 | glycan array binding signal (z-score) [6]: -0.207 | glycan array binding signal (z-score) [7]: 1.39 | glycan array binding signal (z-score) [8]: -0.191 | glycan array binding signal (z-score) [9]: -0.255 | glycan array binding signal (z-score) [10]: -0.212 | glycan array binding signal (z-score) [11]: -0.185 | glycan array binding signal (z-score) [12]: -0.213 | glycan array binding signal (z-score) [13]: -0.21 | glycan array binding signal (z-score) [14]: -0.214 | glycan array binding signal (z-score) [15]: -0.251 | glycan array binding signal (z-score) [16]: -0.22 | glycan array binding signal (z-score) (Gal(b1-4)Gal): -0.208 | glycan array binding signal (z-score) [17]: -0.22 | glycan array binding signal (z-score) [18]: -0.215 | glycan array binding signal (z-score) (Gal(b1-4)Glc): -0.212 | glycan array binding signal (z-score) (Gal(b1-4)Glc6S): -0.205 | glycan array binding signal (z-score) (Gal(b1-4)GlcNAc): -0.196 | glycan array binding signal (z-score) [19]: -0.208 | glycan array binding signal (z-score) (Gal(b1-4)GlcNAc(b1-2)Man): -0.197 | glycan array binding signal (z-score) [20]: 0.485 | glycan array binding signal (z-score) [21]: 0.963 | glycan array binding signal (z-score) [22]: -0.004 | glycan array binding signal (z-score) [23]: -0.198 | glycan array binding signal (z-score) [24]: -0.22 | glycan array binding signal (z-score) [25]: 0.444 | glycan array binding signal (z-score) [26]: -0.212 | glycan array binding signal (z-score) [27]: 2.08 | glycan array binding signal (z-score) [28]: 0.747 | glycan array binding signal (z-score) [29]: 0.019 | glycan array binding signal (z-score) [30]: 3.97 | glycan array binding signal (z-score) [31]: 0.094 | glycan array binding signal (z-score) [32]: 0.218 | glycan array binding signal (z-score) [33]: -0.21 | glycan array binding signal (z-score) [34]: -0.207 | glycan array binding signal (z-score) [35]: -0.199 | glycan array binding signal (z-score) [36]: -0.199 | glycan array binding signal (z-score) [37]: -0.204 | glycan array binding signal (z-score) [38]: -0.212 | glycan array binding signal (z-score) [39]: 0.446
